Over roughly 33,000 sequences, “E-score (-0.5 to 0.5)” has its median near -0.01; the highest 2% begin near 0.26. The list shows a part of the results.
Biological target: Ste12 (UniProt P13574)
Assay: PBM E-score (8-mer binding enrichment) (E-score (-0.5 to 0.5)); higher = stronger / more preferred TF binding; most listed sequences are background and not binding sites
Conditions: protein concentration: 200 nM; construct: GST-DNA-binding domain
Procedure, shortened: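 Universal all-10-mer Agilent arrays, double-stranded by primer extension on fresh or once-stripped slides, were probed with about 100-200 nM GST-tagged yeast transcription factors made by PURExpress. Fluorescent anti-GST detected bound protein, and masliner normalised the scans. E-scores from the Universal PBM Analysis Suite were given to each ungapped eight-base word pooled with its reverse complement.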

Going from ATATAGAT to CGACAGCC, the “PBM E-score” value falls from 0.179 to 0.0223.

Compared with AAGACATC, CACGCAGG is higher in “PBM E-score” value: -0.144 for the first, 0.0557 for the second.

First: GTTAATGA
Second: CACTCTTC
The “PBM E-score” value of the first is higher: 0.12 for the first, -0.0688 for the second.

Compared with ATCGGCAT, TAGCGTCA is lower in “PBM E-score” value: 0.0127 for the first, -0.105 for the second.

Compared with CCATAGCC, CAGCCCCG is higher in “PBM E-score” value: -0.277 for the first, -0.00856 for the second.

First: CCGGCCGA
Second: CATGTTAC
The “PBM E-score” value of the first is lower: -0.0039 for the first, 0.195 for the second.

Compared with GTAGCAAA, CAGTTGCA is lower in “PBM E-score” value: 0.0457 for the first, -0.0529 for the second.

Compared with GGAAGATA, CGCACCTC is lower in “PBM E-score” value: 0.128 for the first, -0.0617 for the second.

Going from AAGCTAGA to ATAGCTGA, the “PBM E-score” value falls from 0.0617 to -0.00919.

Going from GATTTCCA to AAACCAGG, the “PBM E-score” value rises from 0.0343 to 0.167.

Going from ACCCTCAC to ACTCTGAC, the “PBM E-score” value rises from -0.029 to 0.0647.

First: AGCCAGAC
Second: GGCCTAGA
The “PBM E-score” value of the first is lower: -0.132 for the first, 0.0115 for the second.

Going from AGGTAGTC to GTAGCGAC, the “PBM E-score” value rises from -0.199 to -0.184.

Compared with GCATTGAA, CGTAAAAC is lower in “PBM E-score” value: 0.0755 for the first, 0.0692 for the second.

Going from CGACATTA to GTAGCCTA, the “PBM E-score” value falls from 0.163 to -0.17.

Going from CCCCCAGG to GTGAAACA, the “PBM E-score” value rises from -0.0579 to 0.48.

Going from ATGATTTC to ATCCTGGA, the “PBM E-score” value falls from 0.189 to 0.0311.

Compared with GGTCCATA, AAGTAAGA is higher in “PBM E-score” value: -0.111 for the first, 0.163 for the second.

Compared with AAGGCACG, GGGGGATA is lower in “PBM E-score” value: -0.118 for the first, -0.192 for the second.

First: AAATGTCC
Second: AATGGCGT
The “PBM E-score” value of the first is lower: -0.0748 for the first, -0.0391 for the second.

First: AAATTCCC
Second: GCGCTACA
The “PBM E-score” value of the first is higher: 0.0173 for the first, -0.00414 for the second.

Compared with CATCTTTC, ACACCCAT is higher in “PBM E-score” value: 0.00071 for the first, 0.0672 for the second.

Compared with GCTAACGA, AACTTACA is higher in “PBM E-score” value: 0.0186 for the first, 0.132 for the second.

Going from CATAAATG to CGTGTCCC, the “PBM E-score” value falls from 0.0736 to -0.241.

Compared with GGCCAGGA, ACTCATCG is lower in “PBM E-score” value: -0.0649 for the first, -0.164 for the second.

First: GACAGGAC
Second: CAATGTCG
The “PBM E-score” value of the first is lower: -0.0473 for the first, 0.148 for the second.

Compared with AATGAGTC, GACCATTA is higher in “PBM E-score” value: -0.181 for the first, -0.0549 for the second.

First: ACTTACAC
Second: AGCGCCTG
The “PBM E-score” value of the first is higher: -0.0103 for the first, -0.153 for the second.

First: CTTAGCGA
Second: GCGTTGCC
The “PBM E-score” value of the first is higher: -0.0541 for the first, -0.211 for the second.

First: ATGCTTAG
Second: AAGAAGCT
The “PBM E-score” value of the first is lower: -0.205 for the first, -0.0792 for the second.

First: TACCGAAA
Second: TACACAGA
The “PBM E-score” value of the first is higher: 0.0921 for the first, -0.134 for the second.

First: CCTTACAC
Second: AACAAGCG
The “PBM E-score” value of the first is higher: 0.161 for the first, 0.0751 for the second.

Going from AGGATTAA to CGCGTGAA, the “PBM E-score” value rises from 0.057 to 0.164.

Compared with ATGGTCAG, GAACTGGA is higher in “PBM E-score” value: 0.00808 for the first, 0.156 for the second.

Going from TATGAAAA to AACATGGT, the “PBM E-score” value falls from 0.152 to -0.0907.

First: GGAGCTAA
Second: GATAGGCA
The “PBM E-score” value of the first is higher: -0.00628 for the first, -0.0249 for the second.

First: CAAACTCC
Second: TGAGCTAA
The “PBM E-score” value of the first is higher: 0.108 for the first, -0.0278 for the second.

Going from AGAGACAA to CGAGCCGC, the “PBM E-score” value rises from -0.154 to 0.118.

Compared with ATCCTAAC, AGGTAAGG is higher in “PBM E-score” value: -0.03 for the first, 0.0199 for the second.

Compared with ACAAATGA, AGACTACT is lower in “PBM E-score” value: 0.183 for the first, 0.0378 for the second.

First: GCCGACCA
Second: CATAGGGG
The “PBM E-score” value of the first is lower: -0.154 for the first, -0.118 for the second.

First: GGACGCCA
Second: ACCGCTTA
The “PBM E-score” value of the first is lower: -0.16 for the first, -0.157 for the second.

Compared with TAGGAAAA, CTCCTAAA is lower in “PBM E-score” value: 0.164 for the first, -0.135 for the second.

First: CAATATTA
Second: CAGCAAGA
The “PBM E-score” value of the first is higher: 0.176 for the first, 0.0428 for the second.

Going from CGCCATTA to CTGCAAAC, the “PBM E-score” value falls from 0.0104 to -0.0883.

First: GCGGCAAA
Second: AATCCCCC
The “PBM E-score” value of the first is higher: 0.0181 for the first, -0.12 for the second.

Compared with ATGTAATC, AATCGCTG is lower in “PBM E-score” value: -0.0388 for the first, -0.102 for the second.

First: CGAATGTA
Second: CCGTCTTA
The “PBM E-score” value of the first is higher: -0.00511 for the first, -0.189 for the second.

First: AATGAAGC
Second: CCCTGTCC
The “PBM E-score” value of the first is higher: -0.0558 for the first, -0.205 for the second.

First: GACTTGAC
Second: AGGCGGAG
The “PBM E-score” value of the first is lower: -0.0322 for the first, 0.0156 for the second.

First: AGTCGGCA
Second: GCGCAGCC
The “PBM E-score” value of the first is higher: -0.0216 for the first, -0.301 for the second.

Compared with ATTGTTCC, AGAGATTG is lower in “PBM E-score” value: 0.0679 for the first, 0.0539 for the second.

First: AGAGCTGA
Second: AAGCTCGG
The “PBM E-score” value of the first is lower: -0.0939 for the first, -0.00139 for the second.

Compared with ACTCCCGG, CAGATGTC is higher in “PBM E-score” value: -0.0353 for the first, 0.023 for the second.

First: CACACGTC
Second: AAGTCACT
The “PBM E-score” value of the first is lower: -0.0759 for the first, -0.0284 for the second.

First: GGCTGCCA
Second: CCCCGTAC
The “PBM E-score” value of the first is higher: -0.0511 for the first, -0.0713 for the second.

Compared with AACGGAGC, TATTTCGA is higher in “PBM E-score” value: -0.11 for the first, 0.225 for the second.

Compared with AACCAACG, GGTGGTAC is lower in “PBM E-score” value: 0.0688 for the first, -0.281 for the second.

Going from ACCCATGC to TCATCAGA, the “PBM E-score” value rises from -0.134 to -0.0415.

First: AGACACCG
Second: CGACCAAC
The “PBM E-score” value of the first is lower: -0.0911 for the first, -0.0558 for the second.

Compared with AATACTAG, AAGATCTC is lower in “PBM E-score” value: 0.182 for the first, 0.0658 for the second.

First: GGGAACAC
Second: CTCTACCC
The “PBM E-score” value of the first is lower: -0.0371 for the first, 0.0287 for the second.

Compared with ACGGGGCC, CTTTAAGC is higher in “PBM E-score” value: -0.0376 for the first, 0.143 for the second.

Going from CTCGATCC to ATGACAGC, the “PBM E-score” value falls from 0.0884 to -0.0899.

Compared with GAGGAAGC, GATGGAGA is higher in “PBM E-score” value: -0.0777 for the first, 0.015 for the second.

Compared with CCTCCCTA, CTCAGCTC is lower in “PBM E-score” value: 0.12 for the first, -0.161 for the second.

Going from AGGACTTC to AAACAAGA, the “PBM E-score” value rises from -0.222 to 0.183.

Going from AGACCACG to GTGGAAAA, the “PBM E-score” value rises from -0.255 to 0.168.

First: GTGCGAAA
Second: CGCGCCAC
The “PBM E-score” value of the first is higher: 0.133 for the first, 0.0895 for the second.

First: AGACCCAA
Second: CCAGCGTC
The “PBM E-score” value of the first is higher: 0.0589 for the first, -0.0714 for the second.

Going from CACTCATC to AGTAGCAA, the “PBM E-score” value rises from -0.113 to 0.00033.

First: CAAAACCC
Second: AGCAGCGC
The “PBM E-score” value of the first is higher: 0.243 for the first, 0.0541 for the second.

Going from GGTGAGTA to AATTCCGA, the “PBM E-score” value rises from 0.00046 to 0.0921.

Going from AGATCTGG to GGCAACAA, the “PBM E-score” value rises from -0.12 to 0.0301.

First: AGAGATTC
Second: ACACGAAA
The “PBM E-score” value of the first is lower: 0.0905 for the first, 0.212 for the second.

Going from GTCAATTA to ACGGTGCG, the “PBM E-score” value rises from -0.119 to 0.0256.

First: TAGTTATA
Second: GACAATGC
The “PBM E-score” value of the first is higher: 0.0821 for the first, -0.00301 for the second.

Going from GAGATCCA to CGCGATCC, the “PBM E-score” value falls from -0.113 to -0.116.

Going from CTTACAAA to ACCGCCGA, the “PBM E-score” value falls from 0.143 to 0.0296.

Going from ATTCTGAG to TATTGTCA, the “PBM E-score” value falls from 0.0929 to 0.0537.

Compared with ATTTCACA, ACATGCCT is lower in “PBM E-score” value: 0.205 for the first, -0.152 for the second.

Compared with CATCTTCG, GTCACTGA is higher in “PBM E-score” value: -0.0075 for the first, 0.0514 for the second.

First: AACTTGGC
Second: CTAACTAA
The “PBM E-score” value of the first is lower: -0.122 for the first, 0.0174 for the second.

First: AGCCTGAA
Second: ATGCTCGC
The “PBM E-score” value of the first is higher: 0.112 for the first, -0.0993 for the second.

First: AAATCCCC
Second: ACGTCTAC
The “PBM E-score” value of the first is higher: 0.0647 for the first, -0.118 for the second.

Compared with CCAGAGCG, GCGCTAAC is higher in “PBM E-score” value: -0.1 for the first, 0.0237 for the second.
